PubChem BioAssay (NCATS)
“And” between values parts separate entries of the source, which are not always exact repeats. Equal values may be shown once. The inconclusive results got no clear call from the source; some entries with a clear call stand among them for comparison. Potencies of inconclusive entries are doubtful fits and often do not repeat. The source made the active and inactive calls. Calls come from the whole dose curve; as a rule, active = well fitted curve in the direction sought with a large enough effect; inconclusive = small, poorly fitted or top-dose-only effect, or another doubt; inactive = no such curve, though single readings can be large; an effect the other way counts as inactive or inconclusive.

What was measured:
[1] = P-glycoprotein substrates identified in KB-8-5-11 adenocarcinoma cell line, qHTS therapeutic library screen (AID 1346987); conditions: activity change, negative = cytotoxicity: at 44.5 µM (top of the series); note: nearly all actives have a fitted effect of over 65% in size
Procedure, shortened: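 Steps: plate 500 KB-8-5-11 cells/well in DMEM + 10% FCS (colchicine removed); pin compounds in dose-response; incubate 72 h, 37 degree C, 5% CO2; add CellTiter-Glo, 5 min; read luminescence.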

[2] = Primary fluorescence-based thiol-reactive (MSTI) qHTS assay for identification of artifact compounds. (AID 1845221);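 note: thiol-reactive compounds lower the probe fluorescence signal; nearly all actives have a fitted effect of over 65% in size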
Procedure, shortened: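 In PBS pH 7.4 with 2% DMSO, each compound met 4 uM MSTI for one hour at ambient temperature, shielded from light, before fluorescence detection.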

C33A = test: Primary qHTS to identify gynecologic anti-cancer compounds using libraries of approved drugs and bioactive compounds (AID 1345084); conditions: Gynecologic cancer cell panel viability, ATPlite luminescence, 48 h; series mostly up to 57.5 µM; note: nearly all actives have a fitted effect of over 55% in size; for activity change, negative = cytotoxicity: % is set by controls: 0 for no effect and ±100 for the full control effect
Procedure, shortened: (§1)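 Five-concentration response, 48 h; readout is ATP-driven luciferase luminescence.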

CAOV3 = test: as above; conditions: Gynecologic cancer cell panel viability, ATPlite luminescence, 48 h; series mostly up to 57.5 µM
Procedure, shortened: as §1

Es-2 = test: as above; conditions: Gynecologic cancer cell panel viability, ATPlite luminescence, 48 h; series mostly up to 57.5 µM
Procedure, shortened: as §1

CASKI = test: as above; conditions: Gynecologic cancer cell panel viability, ATPlite luminescence, 48 h; series mostly up to 57.5 µM
Procedure, shortened: as §1

HeLa = test: as above; conditions: Gynecologic cancer cell panel viability, ATPlite luminescence, 48 h; series mostly up to 57.5 µM
Procedure, shortened: as §1

Hek293T = test: as above; conditions: Gynecologic cancer cell panel viability, ATPlite luminescence, 48 h, control line for the selectivity index; series mostly up to 57.5 µM
Procedure, shortened: as §1

JEG-3 = test: as above; conditions: Gynecologic cancer cell panel viability, ATPlite luminescence, 48 h; series mostly up to 57.5 µM
Procedure, shortened: as §1

OV90 = test: as above; conditions: Gynecologic cancer cell panel viability, ATPlite luminescence, 48 h; series mostly up to 57.5 µM
Procedure, shortened: as §1

PA-1 = test: as above; conditions: Gynecologic cancer cell panel viability, ATPlite luminescence, 48 h; series mostly up to 57.5 µM
Procedure, shortened: as §1

SKOV3 = test: as above; conditions: Gynecologic cancer cell panel viability, ATPlite luminescence, 48 h; series mostly up to 57.5 µM
Procedure, shortened: as §1

Tov-21-G = test: as above; conditions: Gynecologic cancer cell panel viability, ATPlite luminescence, 48 h; series mostly up to 57.5 µM
Procedure, shortened: as §1

[3] = Primary qHTS for inhibitors of nuclear receptor binding SET domain protein 2 (NSD2) in an isogenic RCH-ACV NSD2 p.E1099K mutant (9B) (AID 1645876); conditions: activity change, negative = viability loss: at 44.9 µM (top of the series) unless noted; note: nearly all actives have a fitted effect of over 70% in size; for activity change, negative = viability loss: % is set by controls: 0 for no effect and ±100 for the full control effect
[4] = Primary qHTS for inhibitors of nuclear receptor binding SET domain protein 2 (NSD2) in an RCH-ACV wild type WT cells (2C) (AID 1645877); conditions: activity change, negative = cell killing: at 44.9 µM (top of the series) unless noted; note: nearly all actives have a fitted effect of over 70% in size
[5] = tested on: Zika virus NS2B-NS3 protease (unlinked complex); test: Primary screen GU Rhodamine qHTS for Zika virus inhibitors: Unlinked NS2B-NS3 protease assay (AID 1347159); conditions: Recombinant ZIKV NS2B-NS3 protease, Rhodamine110 substrate fluorescence; activity change, negative = inhibition: at 107 µM (top of the series); note: nearly all actives have a fitted effect of over 60% in size; for activity change, negative = inhibition: % is set by controls: 0 for no effect and ±100 for the full control effect
Procedure, shortened: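 Noncovalent NS2B hydrophilic domain/NS3 protease complex (25 nM final) in 10 mM Tris-HCl pH 8.0, 0.01% Tween 20, preincubated 15 min with compounds (up to 114 microM), then 1.5 microM Rhodamine110 substrate. Fluorescence change over 15 min fitted to 4-parameter Hill.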

Tov112D = test: Primary qHTS to identify gynecologic anti-cancer compounds using libraries of approved drugs and bioactive compounds (AID 1345084); conditions: Gynecologic cancer cell panel viability, ATPlite luminescence, 48 h; series mostly up to 57.5 µM; note: nearly all actives have a fitted effect of over 55% in size; for activity change, negative = cytotoxicity: % is set by controls: 0 for no effect and ±100 for the full control effect
Procedure, shortened: as §1

[6] = Primary qHTS for small molecule stabilizers of the endoplasmic reticulum resident proteome: Secreted ER Calcium Modulated Protein (SERCaMP) assay (AID 1508630); conditions: SH-SY5Y GLuc-SERCaMP (Gaussia luciferase released on ER calcium loss) secretion, thapsigargin, luminescence; activity change, negative = inhibition: at 38.4 µM (top of the series) unless noted
Procedure, shortened: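 GLuc-SERCaMP-expressing SH-SY5Y cells, pretreated 16 h with compound, are challenged with thapsigargin to empty ER calcium stores; after 4 h, coelenterazine is added directly to the medium and luminescence is imaged.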

[7] = tested on: Zika virus NS2B-NS3 protease (linked construct); test: Primary screen NINDS Rhodamine qHTS for Zika virus inhibitors (AID 1347160); note: nearly all actives have a fitted effect of over 55% in size
Procedure, shortened: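 Purified NS2B-NS3 protease with the NS2B hydrophilic domain joined by a flexible linker (25 nM) in 10 mM Tris-HCl pH 8.0, 0.01% Tween 20, preincubated 15 min at RT with compound; Rhodamine110 peptide substrate 1.5 µM; fluorescence change over 15 min; 4-parameter Hill fit.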

[8] = Primary redox qHTS assay for identification of artifact compounds. (AID 1845223)
Procedure, shortened: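 Amplex Red (25 uM) and HRP (250 mU/mL) in HBSS, with compounds for 15 min, then 250 uM DTT for 30 min, room temperature, dark. Fluorescence 525/598 nm read; normalized to DMSO and 10 uM DA3003; Hill fit.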
Potency is the fitted concentration of half-maximal effect; tags give direction and shape of the fitted curve.

N[C@@H](Cn1ccc(=O)c(O)c1)C(=O)O
inconclusive: Potency [2] 0.238 µM [inhibitor, full curve, poor fit]
inactive: outcome [1] inactive [at 5.11 µM] | activity change, negative = cytotoxicity (C33A) 19.3% [at 6.55 µM] | activity change, negative = cytotoxicity (CAOV3) 11.6% [at 6.55 µM] | activity change, negative = cytotoxicity (Es-2) 4.8% [at 6.55 µM]

CC[C@H]1CN2CCc3cc(OC)c(OC)cc3[C@@H]2C[C@@H]1C[C@H]1NCCc2cc(OC)c(OC)cc21
active: Potency (CASKI) 0.355 µM | Potency (Es-2) 0.447 µM | Potency (HeLa) 0.398 µM | Potency (Hek293T) 0.282 µM | Potency (JEG-3) 11.2 µM | Potency (Tov-21-G) 3.55 µM
inconclusive: Potency (C33A) 0.562 µM [cytotoxic, full curve, poor fit] | Potency (CAOV3) 0.501 µM [cytotoxic, full curve, poor fit] | Potency (OV90) 7.94 µM [cytotoxic, partial curve, poor fit] | Potency (PA-1) 0.282 µM [cytotoxic, full curve, poor fit] | Potency (SKOV3) 0.562 µM [cytotoxic, full curve, poor fit]

CC(C)=CCC/C(C)=C/CO[C@@H]1O[C@H](CO)[C@@H](O)[C@H](O)[C@H]1O
inconclusive: Potency (CAOV3) 0.501 µM [rising, partial curve, poor fit] | Potency (SKOV3) 5.01 µM [rising, full curve, poor fit]
inactive: Potency [3] | Potency [4] | Potency (C33A) | Potency (Es-2)

N#Cc1ccc(-c2ccc(NC(=O)Nc3ccc(-c4ccnc5nc[nH]c45)cc3)cc2)cc1
inconclusive: activity change, negative = inhibition [5] -30.8% [inhibitor] | Potency (CAOV3) 4.47 µM [cytotoxic, partial curve, poor fit] | Potency (CASKI) 7.08 µM [cytotoxic, single point] | Potency (Es-2) 8.91 µM [cytotoxic, single point] | Potency (HeLa) 6.31 µM [cytotoxic, single point] | Potency (Hek293T) 7.08 µM [cytotoxic, single point] | Potency (JEG-3) 4.47 µM [cytotoxic, single point] | Potency (OV90) 4.47 µM [cytotoxic, single point] | Potency (PA-1) 7.08 µM [cytotoxic, single point] | Potency (SKOV3) 4.47 µM [cytotoxic, partial curve, poor fit] | Potency (Tov-21-G) 7.08 µM [cytotoxic, single point] | Potency (Tov112D) 7.08 µM [cytotoxic, single point]
active: Potency (C33A) 5.01 µM

Fc1ccc(C(c2ccc(F)cc2)N2CCN(C/C=C/c3ccccc3)CC2)cc1
inconclusive: Potency [6] 15.8 µM [inhibitor, single point] and 25.1 µM [inhibitor, single point] and 28.2 µM [inhibitor, single point] | Potency [3] 18.8 µM [inhibitor, single point] | Potency [4] 23.7 µM [inhibitor, single point] | Potency (C33A) 39.8 µM [cytotoxic, single point] | Potency (CAOV3) 39.8 µM [cytotoxic, single point] | Potency (CASKI) 28.2 µM [cytotoxic, single point] | Potency (OV90) 39.8 µM [cytotoxic, single point]
inactive: Potency (Hek293T) | Potency (Tov112D)

CS(=O)(=O)N(CC(=O)NCC1CC1)c1cc(C(F)(F)F)ccc1Cl
inactive: Potency [1] | Potency [3] | Potency (CAOV3)
inconclusive: Potency (C33A) 2.24 µM [rising, partial curve, poor fit] | Potency (CASKI) 3.98 µM [rising, partial curve, poor fit]

CC1=C(CO)C(=O)O[C@@H]([C@@H](C)[C@H]2CC[C@H]3[C@@H]4C[C@H]5O[C@]56[C@@H](O)C=CC(=O)[C@]6(C)[C@H]4CC[C@]23C)C1
inconclusive: Potency (CASKI) 1.58 µM [cytotoxic, partial curve, poor fit] | Potency (HeLa) 15.8 µM [cytotoxic, single point] | Potency (JEG-3) 8.91 µM [cytotoxic, partial curve] | Potency (OV90) 12.6 µM [cytotoxic, single point] | Potency (PA-1) 4.47 µM [cytotoxic, partial curve, poor fit]
inactive: Potency [2]
active: Potency (C33A) 4.47 µM | Potency (CAOV3) 8.91 µM | Potency (Es-2) 11.2 µM | Potency (Hek293T) 11.2 µM | Potency (SKOV3) 8.91 µM | Potency (Tov-21-G) 7.08 µM | Potency (Tov112D) 10 µM

Nc1ccn(C[C@@H](CO)OCP(=O)(O)O)c(=O)n1
inconclusive: Potency [6] 103 nM [inhibitor, full curve]

COc1cc(N2CCC(N(C)C)CC2)ccc1Nc1ncc(Cl)c(Nc2ccccc2P(C)(C)=O)n1
active: Potency [3] 2.3 µM and 2.63 µM | Potency [4] 3.25 µM and 3.32 µM | Potency (CAOV3) 3.55 µM | Potency (CASKI) 7.08 µM | Potency (Es-2) 11.2 µM | Potency (HeLa) 3.16 µM | Potency (Hek293T) 10 µM | Potency (SKOV3) 3.55 µM | Potency (Tov-21-G) 7.08 µM | Potency (Tov112D) 10 µM
inconclusive: Potency [1] 20.6 µM [inhibitor, single point] | Potency [2] 2.12 µM [inhibitor, full curve] | Potency (C33A) 5.01 µM [cytotoxic, full curve] | Potency (JEG-3) 39.8 µM [cytotoxic, single point]

Cc1ccccc1C#Cc1ccc(CCC(=O)O)cc1
inactive: Potency [3] | Potency [8] | Potency (C33A)
inconclusive: Potency [7] 20 µM [inhibitor, partial curve] | Potency (CAOV3) 15.8 µM [cytotoxic, partial curve, poor fit] | Potency (CASKI) 28.2 µM [cytotoxic, single point] | Potency (Es-2) 28.2 µM [cytotoxic, partial curve] | Potency (HeLa) 28.2 µM [cytotoxic, partial curve] | Potency (Hek293T) 28.2 µM [cytotoxic, single point] | Potency (JEG-3) 20 µM [cytotoxic, single point] | Potency (OV90) 25.1 µM [cytotoxic, partial curve, poor fit] | Potency (PA-1) 4.47 µM [cytotoxic, partial curve] | Potency (SKOV3) 28.2 µM [cytotoxic, single point] | Potency (Tov112D) 11.2 µM [cytotoxic, partial curve, poor fit]
active: Potency [5] 14.1 µM | Potency (Tov-21-G) 17.8 µM

C/C1=C\CC[C@]2(C)O[C@H]2C(=O)c2c(C)coc2C1
active: Potency (C33A) 7.94 µM | Potency (CAOV3) 15.8 µM | Potency (HeLa) 7.94 µM | Potency (Hek293T) 10 µM | Potency (SKOV3) 7.94 µM | Potency (Tov-21-G) 8.91 µM | Potency (Tov112D) 4.47 µM
inactive: Potency [1]
inconclusive: Potency [5] 25.1 µM [inhibitor, partial curve, poor fit] | Potency [2] 18.9 µM [inhibitor, partial curve] | Potency (JEG-3) 39.8 µM [cytotoxic, single point]

CC(C)(C)C(=O)OCOP(=O)(COCCn1cnc2c(N)ncnc21)OCOC(=O)C(C)(C)C
inconclusive: Potency [1] 11.8 µM [inhibitor, partial curve] and 20.6 µM [inhibitor, single point] | Potency (C33A) 39.8 µM [cytotoxic, single point] | Potency (HeLa) 20 µM [cytotoxic, single point] | Potency (Hek293T) 25.1 µM [cytotoxic, partial curve] | Potency (JEG-3) 15.8 µM [cytotoxic, partial curve] | Potency (OV90) 20 µM [cytotoxic, partial curve, poor fit] | Potency (PA-1) 11.2 µM [cytotoxic, partial curve, poor fit] | Potency (SKOV3) 22.4 µM [cytotoxic, single point] | Potency (Tov-21-G) 10 µM [cytotoxic, partial curve, poor fit] | Potency (Tov112D) 7.08 µM [cytotoxic, partial curve]
active: Potency [3] 7.5 µM and 7.42 µM | Potency (CAOV3) 12.6 µM

CC(=O)O[C@H]1CC(C)(C)CC2[C@@]13[C@H](O)C[C@]1(C)[C@@]2(CCC2[C@@]4(C)CC[C@H](O[C@@H]5OC[C@H](O[C@@H]6O[C@H](CO)[C@@H](O)[C@H](O)[C@H]6O[C@@H]6OC[C@@H](O)[C@H](O)[C@H]6O)[C@H](O)[C@H]5O[C@@H]5O[C@H](CO)[C@@H](O)[C@H](O)[C@H]5O)C(C)(C)C4CC[C@]21C)O[C@@H]3O (stereo not given in full)
active: Potency [4] 1.09 µM | Potency (JEG-3) 2.82 µM | Potency (OV90) 3.16 µM
inconclusive: Potency [1] 3.9 µM [inhibitor, single point] | Potency [8] 1.42 µM [activator, full curve, poor fit] | Potency (C33A) 6.31 µM [cytotoxic, single point] | Potency (CAOV3) 7.94 µM [cytotoxic, single point] | Potency (CASKI) 0.398 µM [cytotoxic, partial curve, poor fit] | Potency (Es-2) 3.55 µM [cytotoxic, single point] | Potency (Hek293T) 5.01 µM [cytotoxic, single point] | Potency (PA-1) 7.94 µM [cytotoxic, single point] | Potency (SKOV3) 11.2 µM [cytotoxic, single point] | Potency (Tov-21-G) 3.16 µM [cytotoxic, partial curve, poor fit] | Potency (Tov112D) 3.16 µM [cytotoxic, partial curve, poor fit]
